Results taken from PubChem BioAssay AID1159614 (National Center for Advancing Translational Sciences (NCATS), 2016).
The whole screen tested about 45,000 compounds, of which about 65 (0.1%) were called active. The call rests on the fitted dose curve; in most records, active means well fitted activation curve with a large enough effect; inconclusive means small, poorly fitted or top-dose-only effect; inactive means no such curve, though single readings can be large or run the other way. This is one part of the list.

Molecular target: Galactocerebrosidase (Homo sapiens) (UniProt P54803)
Sequence of UniProt P54803 (P54803 whole entry, looked up): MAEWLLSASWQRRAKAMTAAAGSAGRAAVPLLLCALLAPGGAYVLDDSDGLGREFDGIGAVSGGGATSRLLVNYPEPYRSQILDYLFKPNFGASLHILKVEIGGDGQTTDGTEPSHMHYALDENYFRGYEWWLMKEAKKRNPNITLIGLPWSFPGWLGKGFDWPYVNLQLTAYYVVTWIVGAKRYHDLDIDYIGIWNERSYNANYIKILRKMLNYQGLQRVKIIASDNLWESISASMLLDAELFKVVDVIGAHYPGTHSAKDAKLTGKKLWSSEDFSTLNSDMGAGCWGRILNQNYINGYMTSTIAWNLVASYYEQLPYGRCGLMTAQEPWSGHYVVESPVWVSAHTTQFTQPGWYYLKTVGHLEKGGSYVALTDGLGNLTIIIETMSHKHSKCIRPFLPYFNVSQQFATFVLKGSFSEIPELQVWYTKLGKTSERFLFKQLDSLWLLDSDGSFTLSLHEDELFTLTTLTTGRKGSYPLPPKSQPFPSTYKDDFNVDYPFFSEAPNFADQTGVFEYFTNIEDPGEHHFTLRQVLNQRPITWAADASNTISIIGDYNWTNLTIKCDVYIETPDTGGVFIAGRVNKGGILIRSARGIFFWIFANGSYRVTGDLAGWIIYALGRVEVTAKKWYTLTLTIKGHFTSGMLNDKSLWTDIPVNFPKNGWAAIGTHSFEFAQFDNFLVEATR
Experiment: A Novel Cell-Based Assay to Identify Small Molecules for B -Galactocerebrosidase; further: 0% is about no effect; nearly all actives have a fitted effect of over 65% in size
Conditions: 145M-Twi-hGALC-G270D cells (Twitcher mouse brain line with human GALC G270D), HMU-beta-Gal fluorescence, 48 h; series mostly up to 57.5 µM; activation: at the top concentration
How it was run: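 Fluorogenic HMU-b-Gal hydrolysis (0.1 mM final, pH 5.2 citrate-phosphate with 1 mg/mL sodium taurocholate; carbonate stop buffer) measures mutant GALC activity after compound treatment of live 145M-Twi Twitcher brain cells stably carrying human GALC-G270D, with wild-type GALC line alongside; activation sought.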

activation, inactive:
CCOc1ccc(CCNC(=O)CCc2c(C)nc3c(-c4ccccc4)c(C)nn3c2C)cc1OCC -15.2%
Cc1nc2ccc(S(=O)(=O)CCC(=O)Nc3ccc(C)c(C)c3)cc2s1 -2.72%
CCOC(=O)c1c(-c2ccccc2)csc1NC(=O)c1cc(-c2ccc(Br)cc2)on1 -16.5%
COc1ccc(NC(=O)/C(C#N)=C/c2cc(C)n(-c3ccc(F)cc3)c2C)cc1 0.0778%
CCOC(=O)c1cccc(NC(=O)C2CCCN(S(=O)(=O)c3ccc4c(c3)oc(=O)n4C)C2)c1 (stereo unspecified) -8.19%
CCc1ccc(NC(=O)C(C)n2nnc3sc(-c4ccccc4)cc3c2=O)cc1 (stereo unspecified) 2.9%
CCOc1ccc(C2=NC(c3ccc(OC)cc3)=Nc3ccc(Cl)cc3N2)cc1 -14.7%
C=CCC(CC=C)(CNC(=O)C(=O)Nc1cc(C)ccc1OC)c1ccc(OC)c(OC)c1 -6.86%
COc1ccccc1CNC(=O)CN1C(=O)COc2ccc(S(=O)(=O)N3CCC(C)CC3)cc21 -4.65%
O=C(Cn1cc(S(=O)(=O)N2CCCC2)c(S(=O)(=O)N2CCCC2)c1)Nc1cccc(F)c1 -2.84%
Cc1nc2nc(SCC(=O)O)nn2c(C)c1Cc1c(F)cccc1Cl -11.5%
Cc1ccc(CN(C(=O)COc2ccc(Cl)c(C)c2)C2CCS(=O)(=O)C2)o1 (stereo unspecified) 10.4%
Cc1csc2nc(COC(=O)c3ccccc3NC(=O)COc3ccccc3F)cc(=O)n12 -8.09%
Cc1ccc(Cl)cc1NC(=O)Cn1c(=O)n(CCCS(=O)(=O)C2CCCCC2)c(=O)c2ccccc21 -4.79%
CC(C)C(=O)N(Cc1ccccc1)S(=O)(=O)c1ccc2c(c1)oc(=O)n2C -12.3%
Cc1ccc(-n2c(=O)c3c4c(sc3n(Cc3cccc(Cl)c3)c2=O)CCC4)cc1C -30.3%
Cc1nc2nncn2c(NCc2ccc(Cl)cc2)c1C -42.6%
CCC(O)c1nc2ccccc2n1Cc1cc(C)ccc1C (stereo unspecified) -13.6%
Cc1c(C(C)C)c(=O)n(-c2ccccc2)n1C -14.5%
Cc1oc2ccc(O)c(CN3CCCCCC3)c2c1C(=O)Nc1cccc(C(F)(F)F)c1 -11.7%
COc1ccc(N2CC(NC(=O)COc3cccc(C)c3)CC2=O)cc1OC (stereo unspecified) -4.24%
COc1ccccc1NS(=O)(=O)c1cn(C)c(C)n1 5.49%
Cc1ccc(C)c(N2CCN(C(=O)Cn3nc(C)c4sc5ccccc5c4c3=O)CC2)c1 -10.7%
COc1ccccc1N(CC(=O)Nc1ccccc1C(F)(F)F)S(=O)(=O)c1ccc(C)cc1 -12.4%
COc1ccc(OC)c(NC(=O)C(C)n2c(=O)c(-c3ccccc3NC(C)=O)nc3ccccc32)c1 (stereo unspecified) -21.5%
O=C(CC1Sc2ccccc2NC1=O)Nc1cccc(C(F)(F)F)c1 (stereo unspecified) -35.1%
